These results are taken from PMC4336329 (PLoS ONE, 2015).

Among all 310,000 compounds or so, about 14,000 (4.5%) showed an effect of 50% or more. Effects have a minus sign here. The list shows a part of the results.
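Also: peak tail current of the secondary pulse compared with the same well before compound.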

In the assay the target is human ether-à-go-go-related gene (hERG) potassium channel (human, UniProt Q12809). As to the kind of experiment: primary screen, population patch clamp on CHO cells stably expressing hERG.
human ether-à-go-go-related gene (hERG) potassium channel, sequence (Q12809 whole entry, looked up): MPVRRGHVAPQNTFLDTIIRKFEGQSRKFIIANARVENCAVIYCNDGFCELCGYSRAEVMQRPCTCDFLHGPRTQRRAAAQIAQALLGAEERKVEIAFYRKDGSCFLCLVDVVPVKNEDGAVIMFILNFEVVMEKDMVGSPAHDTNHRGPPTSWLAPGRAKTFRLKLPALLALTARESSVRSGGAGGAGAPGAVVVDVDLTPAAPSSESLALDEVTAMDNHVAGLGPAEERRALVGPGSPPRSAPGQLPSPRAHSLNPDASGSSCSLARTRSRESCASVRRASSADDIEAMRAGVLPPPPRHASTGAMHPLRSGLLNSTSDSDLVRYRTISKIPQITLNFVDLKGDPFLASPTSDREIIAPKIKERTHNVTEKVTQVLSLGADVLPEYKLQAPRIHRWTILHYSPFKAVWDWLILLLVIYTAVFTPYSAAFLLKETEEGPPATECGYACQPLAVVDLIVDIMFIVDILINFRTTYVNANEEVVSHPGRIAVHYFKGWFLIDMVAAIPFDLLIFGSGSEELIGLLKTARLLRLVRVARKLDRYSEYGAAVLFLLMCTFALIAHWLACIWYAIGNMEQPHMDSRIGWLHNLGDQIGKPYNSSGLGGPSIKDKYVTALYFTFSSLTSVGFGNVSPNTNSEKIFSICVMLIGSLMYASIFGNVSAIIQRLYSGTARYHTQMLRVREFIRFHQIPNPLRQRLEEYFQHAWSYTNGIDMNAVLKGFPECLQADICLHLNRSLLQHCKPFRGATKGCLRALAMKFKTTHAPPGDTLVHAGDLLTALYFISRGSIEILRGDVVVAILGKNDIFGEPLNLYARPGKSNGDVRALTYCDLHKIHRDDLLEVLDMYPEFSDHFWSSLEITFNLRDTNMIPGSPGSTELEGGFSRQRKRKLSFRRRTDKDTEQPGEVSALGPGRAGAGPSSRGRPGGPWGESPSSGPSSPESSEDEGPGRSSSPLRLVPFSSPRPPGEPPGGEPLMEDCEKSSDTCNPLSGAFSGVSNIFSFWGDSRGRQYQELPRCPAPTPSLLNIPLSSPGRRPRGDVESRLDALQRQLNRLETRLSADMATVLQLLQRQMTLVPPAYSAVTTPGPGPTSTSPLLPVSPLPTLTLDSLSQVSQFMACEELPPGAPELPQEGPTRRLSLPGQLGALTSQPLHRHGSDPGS
As for `Cc1ccc(C2(c3ccc(C)cc3)CC2C(=O)Nc2ccc([N+](=O)[O-])cc2O)cc1` (stereo not drawn), the “hERG current change (%, negative = inhibition) at 10uM” value is -2.42%.

As for `CC(=O)Nc1ccc(S(=O)(=O)N2CCNC(=O)CC2)cc1`, the “hERG current change (%, negative = inhibition) at 10uM” value was determined as 7.85%.

For `COc1cccc(-n2c(SCC(=O)Nc3cc(C)on3)nc3c([nH]c4ccccc43)c2=O)c1`, the “hERG current change (%, negative = inhibition) at 10uM” value is on record as -3.95%.

Take `CCOc1ccc(/C=C2/Sc3ccc(C(=O)N4CCN(C(=O)c5ccco5)CC4)cc3N(C)C2=O)cc1OC`: the “hERG current change (%, negative = inhibition) at 10uM” value is given as -53.9%.

As for `Cc1ccc(C(c2nnnn2CS(=O)(=O)c2ccc(C)cc2)N2CCCC2)cc1` (stereo not drawn), the “hERG current change (%, negative = inhibition) at 10uM” value was 18.6%.

As to `Cc1ccc(S(=O)(=O)NCCN2CCOCC2)cc1C`, the “hERG current change (%, negative = inhibition) at 10uM” value is given as -2.28%.

In the case of `Cc1ccc2sc(N(CCCN(C)C)C(=O)c3ccc(S(=O)(=O)N(C)C4CCCCC4)cc3)nc2c1C.Cl`, the “hERG current change (%, negative = inhibition) at 10uM” value was -8.13%.

In the case of `CCCn1c(C(Cc2ccccc2)NC(=O)COC)nc2ccccc21` (stereo not drawn), the “hERG current change (%, negative = inhibition) at 10uM” value amounted to 2.2%.

Take `COCC1CCCCN1C(=O)c1cccc(OC2CCN(S(C)(=O)=O)CC2)c1` (stereo not drawn): the “hERG current change (%, negative = inhibition) at 10uM” value came to 14.7%.

Take `CC12CCC3c4ccc(O)cc4CCC3C1CC(O)C2O` (stereo not drawn): the “hERG current change (%, negative = inhibition) at 10uM” value turned out to be 19.5%.

Regarding `O=C(c1ccc(Cl)c(Cl)c1)c1cc(-c2ccccn2)c(N2CCOCC2)s1`, the “hERG current change (%, negative = inhibition) at 10uM” value is reported as -29.1%.

Consider `Cc1cc(=O)oc2cc(OCC(=O)Nc3ccc(N4CCC(C)CC4)cc3)ccc12`, for which the “hERG current change (%, negative = inhibition) at 10uM” value was found to be 6.53%.

For `Cl.c1ccc([C@H]2CN3CCSC3=N2)cc1`, the “hERG current change (%, negative = inhibition) at 10uM” value is 7.35%.

Take `O=C1N/C(=N/c2ccccn2)SC1Cc1ccccc1` (stereo not drawn): the “hERG current change (%, negative = inhibition) at 10uM” value is reported as -13.7%.

In the case of `CN1CCN(C(c2cc3cc4c(cc3[nH]c2=O)OCCO4)c2nnnn2C2CCCC2)CC1` (stereo not drawn), the “hERG current change (%, negative = inhibition) at 10uM” value was -9.91%.

`CCN(CC)C(=O)c1c(Cl)nc(C)c([N+](=O)[O-])c1C`: the “hERG current change (%, negative = inhibition) at 10uM” value is recorded as 21.5%.

Turning to `CC(=O)c1ccc(-c2ccc(C(=O)N(C)Cc3nc4ccccc4c(=O)[nH]3)o2)cc1`, the “hERG current change (%, negative = inhibition) at 10uM” value is -20.7%.

With `Cc1ccc(Nc2c(-c3ccccn3)nc3ccc(C)cn23)cc1`, the “hERG current change (%, negative = inhibition) at 10uM” value is given as -18.6%.

For the molecule `NC(=O)C1=NOC(CNc2ncc(C(F)(F)F)cc2Cl)C1` (stereo not drawn), the “hERG current change (%, negative = inhibition) at 10uM” value was found to be 0.535%.

Regarding `NC(=O)c1oc2ccccc2c1NC(=O)c1nc2ccccc2s1`, the “hERG current change (%, negative = inhibition) at 10uM” value is listed as 6.28%.

As to `COc1cccc(N2CCN(Cc3nc4scc(-c5ccccc5)c4c(=O)[nH]3)CC2)c1`, the “hERG current change (%, negative = inhibition) at 10uM” value is -1.47%.

For `O=c1cc(-c2ccccc2)nc2cc(-c3ccco3)[nH]n12`, the “hERG current change (%, negative = inhibition) at 10uM” value was determined as 12.8%.

Regarding `CCOC(=O)[C@H]1[C@H]2COc3ccc(Br)cc3[C@@H]2N2C(=O)c3ccc(Cl)cc3NC(=O)[C@@]12C`, the “hERG current change (%, negative = inhibition) at 10uM” value is reported as -1.19%.

As for `COC(=O)C[C@](O)(CCCC(C)(C)O)C(=O)O[C@@H]1C(OC)=C[C@]23CCCN2CCc2cc4c(cc2[C@H]13)OCO4`, the “hERG current change (%, negative = inhibition) at 10uM” value is 10.4%.

Turning to `O=C(NCc1ccccc1)Nc1cccn(Cc2ccccc2)c1=O`, the “hERG current change (%, negative = inhibition) at 10uM” value is listed as 10.4%.

For the molecule `COC(=O)C1CCCCN1C(=O)c1cc(COc2cccc3cnccc23)on1` (stereo not drawn), the “hERG current change (%, negative = inhibition) at 10uM” value is recorded as -2.95%.

As to `COc1cc(CN2CCCC(C)C2)cc([N+](=O)[O-])c1O` (stereo not drawn), the “hERG current change (%, negative = inhibition) at 10uM” value is reported as 13.4%.

As to `O=C(Nc1ccc2ccccc2n1)C1CCCCC1`, the “hERG current change (%, negative = inhibition) at 10uM” value is listed as -6.07%.

For the molecule `CCC(OC(=O)c1ccco1)C(=O)NCc1ccc2c(c1)OCO2` (stereo not drawn), the “hERG current change (%, negative = inhibition) at 10uM” value is on record as -5.67%.

Consider `COc1ccccc1-c1c(C)oc2c(CN3CCN(C)CC3)c(O)ccc2c1=O`, for which the “hERG current change (%, negative = inhibition) at 10uM” value was found to be 21.4%.

`Cn1c(=O)c2c(SCC(=O)N3CCOCC3)nc(-c3ccccc3F)nc2n(C)c1=O`: the “hERG current change (%, negative = inhibition) at 10uM” value was -8.27%.

For `O=C(C1=C[C@H](C2CCCCC2)C[C@H](OCCCCO)O1)N1CCOCC1`, the “hERG current change (%, negative = inhibition) at 10uM” value amounted to 9.68%.

On to `COc1ccccc1CNC(=O)[C@@H](NC(=O)C1CCN(C(=O)[C@@H]2CCCN2)CC1)C(C)C`, for which the “hERG current change (%, negative = inhibition) at 10uM” value worked out at 2.92%.

Turning to `Br.COc1ccc(C2=CSC3=NCCN23)cc1F`, the “hERG current change (%, negative = inhibition) at 10uM” value was -13.9%.

With `CN(c1ccccc1C(=O)N1CCN(c2ccccc2)CC1)S(C)(=O)=O`, the “hERG current change (%, negative = inhibition) at 10uM” value is given as -16.3%.

In the case of `CCOc1ccccc1C(=O)OCC(=O)Nc1ccc(OC(F)F)cc1`, the “hERG current change (%, negative = inhibition) at 10uM” value is -54%.

In the case of `O=S(=O)(c1ccc(Cl)nc1)N1CCN(c2ncccn2)CC1`, the “hERG current change (%, negative = inhibition) at 10uM” value is reported as -0.184%.

In the case of `CC[n+]1c(/C=C/Nc2ccccc2)sc2ccccc21.[I-]`, the “hERG current change (%, negative = inhibition) at 10uM” value is listed as -72.2%.

For `Cc1cccc(N2CCN(c3ccc(N4C(=O)CCCC4=O)cc3[N+](=O)[O-])CC2)c1C`, the “hERG current change (%, negative = inhibition) at 10uM” value is -17.6%.

Consider `Nc1ccc(C(=O)OCC(=O)c2cccc([N+](=O)[O-])c2)cc1`, for which the “hERG current change (%, negative = inhibition) at 10uM” value came out at 39.8%.

With `COc1c(Cl)cc(Cl)cc1CNCCNCCO.Cl`, the “hERG current change (%, negative = inhibition) at 10uM” value is on record as -16%.

Take `O=C(CN1C(=O)C2CCCCC2C1=O)N1CCN(c2ccc(F)cc2)CC1` (stereo not drawn): the “hERG current change (%, negative = inhibition) at 10uM” value was -12.2%.

Regarding `CSc1ccc(S(=O)(=O)NCc2ccccc2)cc1`, the “hERG current change (%, negative = inhibition) at 10uM” value came out at 13.1%.

On to `O=C(NC(=S)N1CCN(c2ccc([N+](=O)[O-])cc2)CC1)c1ccco1`, for which the “hERG current change (%, negative = inhibition) at 10uM” value is -61.2%.

With `CCOc1ccc(C(=O)NC(C)CCc2ccccc2)cc1` (stereo not drawn), the “hERG current change (%, negative = inhibition) at 10uM” value amounted to 12.3%.

With `COc1ccc(NC(=O)CCN2CCN(Cc3ccccc3)CC2)c(OC)c1`, the “hERG current change (%, negative = inhibition) at 10uM” value is given as -15.7%.

Turning to `COc1ccccc1/C=C/C=N/n1c(-c2cc(-c3ccccc3)n[nH]2)n[nH]c1=S`, the “hERG current change (%, negative = inhibition) at 10uM” value is listed as 21.2%.

`O=S(=O)(c1ccc(Cl)cc1)c1nc(-c2ccccc2F)oc1NCCCN1CCOCC1`: the “hERG current change (%, negative = inhibition) at 10uM” value is on record as -10.4%.

Regarding `CCOc1ccc(S(=O)(=O)NCc2cccnc2)c2ccccc12`, the “hERG current change (%, negative = inhibition) at 10uM” value is given as -6.83%.

Regarding `COc1ccc2cc(CCNC(=O)c3cccs3)c(=O)[nH]c2c1`, the “hERG current change (%, negative = inhibition) at 10uM” value is -5.27%.

Regarding `Cc1cc(C)cc(N(CC(=O)N2CCCC2)S(C)(=O)=O)c1`, the “hERG current change (%, negative = inhibition) at 10uM” value is on record as -10.9%.

As to `COc1ccc(C2=CC(=O)C[C@H](c3ccc(F)cc3)C2)cc1OC`, the “hERG current change (%, negative = inhibition) at 10uM” value is on record as -8.74%.

Turning to `O=C(NC(NC(=O)c1ccccc1)c1cccc([N+](=O)[O-])c1)c1ccccc1`, the “hERG current change (%, negative = inhibition) at 10uM” value is recorded as 1.61%.

Take `Cc1sc(NC(=O)CSc2nnc(C(C)C)n2C)c(C#N)c1C`: the “hERG current change (%, negative = inhibition) at 10uM” value was -1.79%.
